# Only a selection was taken, and the strongest signals are over-represented in it overall.
# Experiments:
# Experiment in all cases: glycan array binding signal (z-score within array); higher = stronger binding
# Conditions in all cases: glycan notation: IUPAC condensed, linker removed
# [1] = test system: Fuc(a1-2)[GalNAc(a1-3)]Gal(b1-3)GlcNAc
# How it was run: (§1)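 Glycan array binding is given as a within-array Z-score, which can be read as non-binding when negative. The arrays, 3228 of them, came from the Consortium for Functional Glycomics database and were retained only where the protein sequence was available. Z-scores were averaged across arrays of the same protein sequence at different concentrations or buffers and across linkers.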
# [2] = test system: Fuc(a1-2)[GalNAc(a1-3)]Gal(b1-4)GlcNAc(b1-2)Man(a1-3)[Fuc(a1-2)[GalNAc(a1-3)]Gal(b1-4)GlcNAc(b1-2)Man(a1-6)]Man(b1-4)GlcNAc(b1-4)GlcNAc
# How it was run: as §1
# [3] = test system: Fuc(a1-2)[GalNAc(a1-3)]Gal(b1-4)[Fuc(a1-3)]GlcNAc
# How it was run: as §1
# [4] = test system: Fuc(a1-2)[GalNAc(a1-3)]Gal(b1-4)GlcNAc(b1-3)[Fuc(a1-2)[GalNAc(a1-3)]Gal(b1-4)GlcNAc(b1-6)]GalNAc
# How it was run: as §1
# [5] = test system: Fuc(a1-2)[GalNAc(a1-3)]Gal(b1-4)GlcNAc(b1-2)Man(a1-3)[Fuc(a1-2)[GalNAc(a1-3)]Gal(b1-4)GlcNAc(b1-2)Man(a1-6)]Man(b1-4)GlcNAc(b1-4)[Fuc(a1-6)]GlcNAc
# How it was run: as §1
# [6] = test system: Fuc(a1-2)[GalNAc(a1-3)]Gal(b1-4)GlcNAc(b1-3)Gal(b1-4)GlcNAc
# How it was run: as §1
# [7] = test system: Fuc(a1-2)[GalNAc(a1-3)]Gal(b1-4)Glc
# How it was run: as §1
# [8] = test system: Fuc(a1-2)[GalNAc(a1-3)]Gal(b1-4)GlcNAc
# How it was run: as §1
# [9] = test system: Fuc(a1-2)[GalNAc(a1-3)]Gal(b1-4)GlcNAc(b1-3)Gal(b1-4)GlcNAc(b1-3)Gal(b1-4)GlcNAc
# How it was run: as §1
# [10] = test system: Fuc(a1-2)[GalNAc(a1-3)]Gal(b1-4)[Fuc(a1-3)]GlcNAc(b1-3)GalNAc
# How it was run: as §1
substance,measurement,setting,value
M-Ficolin (Homo sapiens) (chain not printed),glycan array binding signal (z-score),[1],-0.209
same,glycan array binding signal (z-score),[2],-0.186
M-Ficolin G221F (Homo sapiens) (chain not printed),glycan array binding signal (z-score),[2],-0.176
same,glycan array binding signal (z-score),[3],-0.178
Meso764 (Homo sapiens) (chain not printed),glycan array binding signal (z-score),[2],4.21
same,glycan array binding signal (z-score),[4],-0.388
M-Ficolin Y271F (Homo sapiens) (chain not printed),glycan array binding signal (z-score),[3],0.249
Thrombomodulin Extracellular (Homo sapiens) (chain not printed),glycan array binding signal (z-score),[5],0.354
same,glycan array binding signal (z-score),[6],0.284
same,glycan array binding signal (z-score),[7],-0.404
M-Ficolin A256V (Homo sapiens) (chain not printed),glycan array binding signal (z-score),[6],-0.177
H-Ficolin (Homo sapiens) (chain not printed),glycan array binding signal (z-score),[7],-0.424
VWF (Homo sapiens) (chain not printed),glycan array binding signal (z-score),[1],5.17
same,glycan array binding signal (z-score),[8],5.5
same,glycan array binding signal (z-score),[7],6.78
FGF2 (chain not printed),glycan array binding signal (z-score),[9],-0.741
Siglec-2 (Homo sapiens) (chain not printed),glycan array binding signal (z-score),[3],0.034
Serum Amyloid P component (Homo sapiens) (chain not printed),glycan array binding signal (z-score),[3],-0.491
NCAM1 (Homo sapiens) (chain not printed),glycan array binding signal (z-score),[10],8.55
Gal 8 long (Homo sapiens) (chain not printed),glycan array binding signal (z-score),[1],4
Galectin-8 C-terminal CRD (Homo sapiens) (chain not printed),glycan array binding signal (z-score),[1],6.98
same,glycan array binding signal (z-score),[8],5.18
same,glycan array binding signal (z-score),[7],4.29
